The structures appear in SMILES notation. The campaign covered roughly 150,000 compounds. About 540 (0.36%) showed an effect of 50% or more. Some of the results follow.

The test system of this test is Plasmodium falciparum. As to the kind of experiment: Primary screen in NF54 nanoGlo assay, in single point, at 2uM, 72h; a lower Z score goes with more inhibition. The class given is functional, Erythrocyte. The settings on record: timepoint 72 hour.
Take `CCC[C@H]1CCCN1C(=O)c1cccc(S(=O)(=O)NCc2ccncn2)c1`: the “% Inhibition” value was determined as 4% and the Z score is on record as -0.76.
The corresponding values for `CC(C)C1=NO[C@H](C(=O)NCCc2ccncc2)C1` are -18% and 2.34.
For `O=C(NCCNC(=O)c1ccccc1Cl)c1cc2ccccc2cc1O`, the “% Inhibition” value was -16% and the Z score worked out at 2.25.
The corresponding values for `O=C(COc1ccccc1)Nc1ccc(S(=O)(=O)N(Cc2ccccc2)c2ccccc2)cc1` are 14% and -1.68.
The corresponding values for `NS(=O)(=O)c1ccc(-c2ccncc2)c(F)c1` are -1% and 0.11.
The like results for `O=C(Nc1ccnn1Cc1ccc(Cl)cc1)C1=NN(c2ccccc2)C(=O)CC1` were, in that order, -2% and 0.39.
As for `CC(C)c1cccc(C(=O)N2C[C@@H](C)N(C)[C@@H](C)C2)n1`, the “% Inhibition” value is on record as 6% and the Z score is -0.85.
Turning to `O=C(Nc1ccccc1Cc1ccccc1)c1ccc2ccccc2n1`, the “% Inhibition” value was -1% and the Z score was determined as 0.14.
The corresponding values for `Nc1nc2scc(-c3ccc4c(c3)CC(=O)N4)n2n1` are -5% and 0.58.
The corresponding values for `O=C1CCC2(CCN(C/C=C/c3ccccc3)CC2)CN1CCc1c[nH]cn1` are -6% and 1.12.
The corresponding values for `O=C([C@H](O)c1ccc2ccccc2c1)N1C[C@H](CO)C[C@H](CO)C1` are -20% and 1.95.
`Cc1cc(OCCOc2cccc(S(C)(=O)=O)c2)nn1C`: the “% Inhibition” value is 35% and the Z score is recorded as -3.93.
The corresponding values for `Cc1ccc(-n2nc(CN3CCOCC3)c(-c3ccccc3)c2N)cc1` are -21% and 2.45.
The like results for `COCC(=O)N(CC(=O)N1CCc2sccc2[C@@H]1COc1ccc(F)cc1)CC(C)C` were, in that order, -6% and 0.94.
The corresponding values for `O=C(Cn1cc(F)ccc1=O)Nc1ccnn1C1CCCC1` are 15% and -1.92.
As for `CO[C@H]1C[C@H](C(=O)Nc2cc(Cl)ccc2C(C)(C)C)N(S(C)(=O)=O)C1`, the “% Inhibition” value was -14% and the Z score came to 1.8.
Take `Cc1nc(-c2nnn(-c3cccc(Cl)c3)c2C)sc1C(=O)NCC(C)C`: the “% Inhibition” value was -5% and the Z score was 0.92.
The like results for `O=C(CCC1CCCC1)NCC(=O)N1CC[C@H](N2CCCC2=O)C1` were, in that order, 2% and -0.47.
With `Cc1cc(C(=O)N[C@H]2CCN(Cc3cccc4nonc34)C[C@@H]2O)no1`, the “% Inhibition” value came out at 4% and the Z score is listed as -0.52.
The corresponding values for `CC(C)(C)c1noc(OCc2cccc(C#N)c2)n1` are 36% and -1.51.
The like results for `C[C@@H](CNC(=O)CCc1ncccn1)C1CCCCC1` were, in that order, 0% and 0.03.
The like results for `O=C(Cc1csc(-c2ccoc2)n1)N1CCC[C@H]1CO` were, in that order, -9% and 1.3.
Turning to `COc1ccccc1CC(C)(C)C(=O)NS(=O)(=O)c1cccnc1`, the “% Inhibition” value is -5% and the Z score worked out at 0.59.
The like results for `Cc1nnc(CNc2ccc(Oc3nc4ccccc4s3)c(Cl)c2)s1` were, in that order, -6% and 1.07.
With `Cc1ccccc1CNC(=O)CN(C(C)C)C1CCOCC1`, the “% Inhibition” value was 42% and the Z score is -2.56.
The corresponding values for `CC[C@H](C)N(CC(=O)O)C(=O)c1ccc(C)cc1F` are -4% and 0.84.
The like results for `Cc1ccc(S(=O)(=O)N2CCC[C@H](C(=O)NC3CC3)C2)cc1F` were, in that order, 1% and -0.17.
The like results for `COc1ccc(-n2c(-c3ccccc3)cc(C(=O)N3CCN(S(=O)(=O)c4ccc(C(C)(C)C)cc4)CC3)c2C)cc1OC` were, in that order, 4% and -0.52.
With `O=C(N[C@@H]1CN(Cc2ccccc2C(F)(F)F)C[C@H]1CO)C1CCC1`, the “% Inhibition” value was determined as 0% and the Z score was determined as 0.06.
With `Cc1cccc(C(=O)NCc2nc([C@H]3CC(=O)N(Cc4ccc(F)cc4)C3)no2)c1`, the “% Inhibition” value is recorded as -12% and the Z score was 1.32.
The like results for `O=C1CN(C(=O)c2cnn(Cc3ccccc3)c2)c2ccncc2N1` were, in that order, 32% and -3.63.
The like results for `CN(CCNS(N)(=O)=O)Cc1ccc(F)cc1` were, in that order, -4% and 0.59.
The corresponding values for `CC(O)CN(C)C(=O)C1N(C(=O)OC(C)(C)C)CC12CCOCC2` (centres undefined) are 1% and -0.18.
As to `CC(C)n1ncnc1-c1ccc2c(c1)OCCO2`, the “% Inhibition” value is -19% and the Z score was 2.04.
With `O=C(O)c1c2c(nc3ccccc13)C(=Cc1cccc(C=C3CCCc4c3nc3ccccc3c4C(=O)O)c1)CCC2`, the “% Inhibition” value stood at 2% and the Z score is listed as -0.26.
The corresponding values for `CN(CC(=O)NC(C)(C)C)C1CCCC1S(C)(=O)=O` (centres undefined) are -6% and 1.05.
The corresponding values for `COCCCNC(=O)[C@@H]1CC2(CCN(C(=O)c3cccn3C)CC2)C(=O)N1C` are -10% and 1.38.
The like results for `Cc1cc(NC(=O)C(C)(C)NC(=O)c2cccs2)cc2sc(N)nc12` were, in that order, -7% and 0.8.
Take `CC(=O)N1CC(NC(=O)c2ccc(S(C)(=O)=O)cc2)C1`: the “% Inhibition” value is listed as -18% and the Z score is 2.19.
For the molecule `O=C(Cn1cnnn1)Nc1cc(OCc2ccccc2)ncn1`, the “% Inhibition” value was -12% and the Z score was 2.19.
The like results for `Cc1cc(O)c(C(=O)O)c(/C=C/c2cccc(O)c2)n1` were, in that order, 2% and -0.31.
The corresponding values for `O=C(CCc1cccc(F)c1F)NC1(C(=O)O)CCC1` are -8% and 1.41.

By % Inhibition is commonly meant the relative decrease from the control value, in per cent.

(Values after ChEMBL document CHEMBL4888484, “Replenishing the malaria drug discovery pipeline: Screening and hit evaluation of the MMV Hit Generation Library 1 (HGL1) against asexual blood stage Plasmodium falciparum ,using a nano luciferase reporter read-out” (2022).)
